# Test results reported in the supplement of paper PMC9135407.
# Where “and” joins values, the source holds several entries; their conditions need not be identical. Equal entries are not always repeated. Structures can show the parent of a compound that is named as a salt. Among all 5,800 compounds or so, about 620 (11%) showed activity.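 How the source made its calls: active = score above a cut-off or among the top three wells of a plate; in these data no inactive exceeds 0.85.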 This is a selection; strong and weak results do not stand in their true shares.
# Tested on: primary human hepatic stellate cells (donor 1)
# Assay: scaled lipid accumulation score (0 = DMSO-like, 1 = nortriptyline-like); higher = stronger HSC inactivation (lipid re-accumulation), active = hit call of the paper
# Conditions: 48 h
# [1] = library stock concentration: 1 mM
# [2] = library stock concentration: 3.33 mM
# [3] = library stock concentration: 10 mM
# [4] = library stock concentration: 80 uM
# [5] = library stock concentration: 400 uM
# [6] = library stock concentration: 2 mM
# [7] = library stock concentration: 4.7 mM
# [8] = library stock concentration: 6.3 mM
compound,measurement,setting,value
CC(C)CCOc1ccc(NC(=S)Nc2ccc(OCCC(C)C)cc2)cc1 [Thiocarlide],scaled lipid accumulation score,[1],inactive: ≤ 0
Cc1ccc(Cl)cc1N(CC(=O)Nc1c(F)cccc1F)S(C)(=O)=O,scaled lipid accumulation score,[2],inactive: ≤ -0.007
same,scaled lipid accumulation score,[3],inactive: 0.137
CCCCCCCCCCCCCC(=O)OCC [Myristic Acid ethyl ester],scaled lipid accumulation score,[1],inactive: 0.028
CNCCCN1c2ccccc2CCc2ccccc21.Cl,scaled lipid accumulation score,[3],active: 0.969
O=C1c2ccccc2-c2n[nH]c3cccc1c23 [JNK Inhibitor II],scaled lipid accumulation score,[2],inactive: ≤ 0
O=C1c2ccccc2-c2n[nH]c3cccc1c23,scaled lipid accumulation score,[4],inactive: 0.129
same,scaled lipid accumulation score,[5],inactive: 0.086
same,scaled lipid accumulation score,[6],inactive: 0.004
same,scaled lipid accumulation score,[2],inactive: ≤ 0
same,scaled lipid accumulation score,[3],inactive: ≤ 0 and inactive: ≤ -0.07 and inactive: ≤ -0.009
O=C(c1ccc(OCCN2CCCCC2)cc1)c1c(-c2ccc(O)cc2)sc2cc(O)ccc12 [Raloxifene HCl],scaled lipid accumulation score,[2],inactive: ≤ 0
same,scaled lipid accumulation score,[3],inactive: 0.575
O=C(c1ccc(OCCN2CCCCC2)cc1)c1c(-c2ccc(O)cc2)sc2cc(O)ccc12,scaled lipid accumulation score,[3],inactive: 0.798
O=C(c1ccc(OCCN2CCCCC2)cc1)c1c(-c2ccc(O)cc2)sc2cc(O)ccc12 [Raloxifene hydrochloride],scaled lipid accumulation score,,inactive: 0.032
same,scaled lipid accumulation score,[3],inactive: 0.661 and inactive: 0.376
CC(C)[C@H](CO)Nc1nc(Nc2cc(N)cc(Cl)c2)c2ncn(C(C)C)c2n1 [Aminopurvalanol A],scaled lipid accumulation score,[2],inactive: 0.02
same,scaled lipid accumulation score,[3],inactive: 0.034
CNC(=O)c1ccc(N2C(=S)N(c3cnc(C#N)c(C(F)(F)F)c3)C(=O)C23CCC3)cc1F,scaled lipid accumulation score,[2],inactive: ≤ 0
same,scaled lipid accumulation score,[3],inactive: ≤ 0
CCO/C(O)=C1\C(COCCN)=NC(C)=C(C(=O)OC)C1c1ccccc1Cl (stereo not given),scaled lipid accumulation score,[3],active: 1.38
CCOc1nc(NC(=O)Cc2cc(OC)ccc2OC)cc(N)c1C#N [JNK Inhibitor VIII],scaled lipid accumulation score,[2],inactive: ≤ 0
"CCCCC[C@H](O)/C=C/[C@@H]1[C@@H](C/C=C\CCCC(=O)O)[C@H](O)C[C@H]1O [9b,11a-Prostaglandin F2]",scaled lipid accumulation score,[1],inactive: ≤ -0.021
CCCCC[C@H](O)/C=C/[C@@H]1[C@@H](C/C=C\CCCC(=O)O)[C@H](O)C[C@H]1O [Prostaglandin F2.beta. (tromethamine salt)],scaled lipid accumulation score,[1],inactive: ≤ 0
CCCCC[C@H](O)/C=C/[C@@H]1[C@@H](C/C=C\CCCC(=O)O)[C@H](O)C[C@H]1O [Prostaglandin F2.beta.],scaled lipid accumulation score,[1],inactive: ≤ 0
CC(C)(NS(=O)(=O)c1ccc(Oc2ccc(F)cc2)cc1)C(=O)NO,scaled lipid accumulation score,[3],inactive: 0.223
Cc1ccc(NC(=O)Nc2cc(C(F)(F)F)ccc2F)cc1Nc1ccc2c(c1)NC(=O)/C2=C\c1ccc[nH]1,scaled lipid accumulation score,[4],inactive: 0.038
same,scaled lipid accumulation score,[5],inactive: 0.353
S=C=Nc1cccc(NC(=S)NCCCCNC(=S)Nc2cccc(N=C=S)c2)c1,scaled lipid accumulation score,[2],inactive: 0.004
same,scaled lipid accumulation score,[3],inactive: 0.023
CCOc1cc(N2CCC(O)CC2)ccc1Nc1ncc2c(n1)N(C)c1ccccc1C(=O)N2C,scaled lipid accumulation score,[4],inactive: ≤ -0.009
same,scaled lipid accumulation score,[5],inactive: 0.026
same,scaled lipid accumulation score,[6],inactive: ≤ -0.009
same,scaled lipid accumulation score,[2],inactive: ≤ -0.009
same,scaled lipid accumulation score,[3],inactive: 0.473 and inactive: 0.012
O=C(CCCCCCCCCCCCC1CCCC1)Nc1ccc(S(=O)(=O)c2ccc(NC(=O)CCCCCCCCCCCCC3CCCC3)cc2)cc1 [Chaulmosulfone],scaled lipid accumulation score,[3],inactive: ≤ -0.027
CN1CCN(c2ccc(OC(F)(F)F)c(Nc3ncc4c(n3)-c3c(c(C(N)=O)nn3CCO)CC4)c2)CC1,scaled lipid accumulation score,[3],active: 0.879
NS(=O)(=O)c1cc2c(cc1C(F)(F)F)NC(Cc1ccccc1)NS2(=O)=O (stereo not given) [Bendroflumethiazide],scaled lipid accumulation score,,inactive: ≤ 0
same,scaled lipid accumulation score,[7],inactive: ≤ 0
NS(=O)(=O)c1cc2c(cc1C(F)(F)F)NC(Cc1ccccc1)NS2(=O)=O (stereo not given) [Bendrofumethiazide],scaled lipid accumulation score,[3],inactive: ≤ -0.027
NS(=O)(=O)c1cc2c(cc1C(F)(F)F)NC(Cc1ccccc1)NS2(=O)=O (stereo not given) [Bendrofluazide],scaled lipid accumulation score,[3],inactive: ≤ 0
Cc1nc2c(OCc3ccccc3)cccn2c1CC#N,scaled lipid accumulation score,[3],inactive: 0.243 and inactive: ≤ 0
CC1(C)S[C@@H]2[C@H](N3C(=O)[C@@H](c4ccccc4)NC3(C)C)C(=O)N2[C@H]1C(=O)O [Hetacillin potassium],scaled lipid accumulation score,[7],inactive: 0.007
same,scaled lipid accumulation score,[3],inactive: ≤ 0
CCOC(=O)C1=C(C)NC(C)=C(C(=O)OC)C1c1cccc([N+](=O)[O-])c1 (stereo not given) [Nitrendipine],scaled lipid accumulation score,,inactive: ≤ 0
same,scaled lipid accumulation score,[2],inactive: ≤ 0
same,scaled lipid accumulation score,[3],inactive: ≤ 0 and inactive: 0.348 and inactive: 0.07
CCOC(=O)C1=C(C)NC(C)=C(C(=O)OC)C1c1cccc([N+](=O)[O-])c1 (stereo not given),scaled lipid accumulation score,[3],inactive: 0.196
CN(C)CCCN1c2ccccc2Sc2ccc(Cl)cc21 [Chlorpromazine],scaled lipid accumulation score,[8],active: 1.09
CC(C)C[C@H](NC(=O)CNC(=O)c1cc(Cl)ccc1Cl)B1OC(=O)CC(CC(=O)O)(C(=O)O)O1 (stereo not given in full),scaled lipid accumulation score,[2],inactive: ≤ 0
same,scaled lipid accumulation score,[3],inactive: 0.118
N[C@@H](C(=O)O)c1ccc(O)c(C(=O)O)c1 [(R)-3-Carboxy-4-hydroxyphenylglycine],scaled lipid accumulation score,[3],inactive: ≤ 0
CCn1cc(C(=O)O)c(=O)c2cc(F)c(N3CCNCC3)cc21,scaled lipid accumulation score,[3],inactive: ≤ 0
CCn1cc(C(=O)O)c(=O)c2cc(F)c(N3CCNCC3)cc21 [Norfloxacin],scaled lipid accumulation score,,inactive: ≤ 0
same,scaled lipid accumulation score,[8],inactive: 0.007 and inactive: 0.004
same,scaled lipid accumulation score,[3],inactive: ≤ 0
c1ccc(N2CCN(CCCOc3ccc4c(c3)OCO4)CC2)cc1 [BP 554 maleate],scaled lipid accumulation score,[3],inactive: ≤ 0
"CN(C)c1nc(N)c(C(=O)NC(=N)N)nc1Cl [5-(N,N-Dimethyl)amiloride hydrochloride]",scaled lipid accumulation score,[3],inactive: ≤ 0
CS(=O)(=O)O.Cc1ccc2c(c1)c1c3n2CCNC3CCC1 (stereo not given) [Pirlindole mesylate],scaled lipid accumulation score,[3],active: 0.93
COc1c(O)cc2c(c1O)[C@@H]1O[C@H](CO)[C@@H](O)[C@H](O)[C@H]1OC2=O [Bergenin],scaled lipid accumulation score,[2],inactive: ≤ 0
same,scaled lipid accumulation score,[3],inactive: ≤ 0
COc1c(O)cc2c(c1O)[C@@H]1O[C@H](CO)[C@@H](O)[C@H](O)[C@H]1OC2=O,scaled lipid accumulation score,[3],inactive: ≤ 0
COc1c(O)cc2c(c1O)[C@@H]1O[C@H](CO)[C@@H](O)[C@H](O)[C@H]1OC2=O [Bergenin monohydrate],scaled lipid accumulation score,,inactive: 0.012
CCCCCC(=O)/C=C/C=C\C/C=C\C/C=C\CCCC(=O)O [15-Ketoicosatetraenoic acid],scaled lipid accumulation score,library stock concentration: 100 uM,inactive: ≤ -0.021
CC(C)[C@H]1CC[C@H](C(=O)N[C@H](Cc2ccccc2)C(=O)O)CC1 [Nateglinide],scaled lipid accumulation score,[2],inactive: ≤ 0
same,scaled lipid accumulation score,[8],inactive: ≤ 0
same,scaled lipid accumulation score,[3],inactive: ≤ 0 and inactive: ≤ -0.027
CC(C)[C@H]1CC[C@H](C(=O)N[C@H](Cc2ccccc2)C(=O)O)CC1 [nateglinide],scaled lipid accumulation score,[8],inactive: ≤ -0.006
CC(C)[C@H]1CC[C@H](C(=O)N[C@H](Cc2ccccc2)C(=O)O)CC1,scaled lipid accumulation score,[3],inactive: ≤ 0
Nc1cccc(-c2cc3c(Oc4cccc(O)c4)ncnc3[nH]2)c1,scaled lipid accumulation score,[4],inactive: 0.044
same,scaled lipid accumulation score,[5],inactive: ≤ -0.001
same,scaled lipid accumulation score,[6],inactive: 0.078
same,scaled lipid accumulation score,[2],inactive: 0.101
same,scaled lipid accumulation score,[3],inactive: 0.344 and inactive: 0.173
COc1ccc(C(C)=O)c(O)c1 [Paeonol],scaled lipid accumulation score,[2],inactive: ≤ 0
same,scaled lipid accumulation score,[3],inactive: ≤ 0
CN1CCN(C2=Nc3cc(Cl)ccc3Nc3ccccc32)CC1 [Clozapine],scaled lipid accumulation score,,active: 1
COc1ccc(CCCOC(Cn2ccnc2)c2ccc(OC)cc2)cc1 (stereo not given),scaled lipid accumulation score,[1],inactive: 0.011
same,scaled lipid accumulation score,[3],inactive: 0.486 and inactive: 0.065
same,scaled lipid accumulation score,library stock concentration: 13.6 mM,inactive: 0.509
COc1ccccc1OCCNCC(O)COc1cccc2[nH]c3ccccc3c12 (stereo not given) [Carvedilol tartrate],scaled lipid accumulation score,[3],inactive: 0.276
COc1ccccc1OCCNCC(O)COc1cccc2[nH]c3ccccc3c12 (stereo not given) [Carvedilol],scaled lipid accumulation score,[2],inactive: ≤ 0
same,scaled lipid accumulation score,library stock concentration: 4.9 mM,inactive: 0.302 and inactive: 0.4
CC(C)c1nc(CN(C)C(=O)N[C@H](C(=O)N[C@@H](Cc2ccccc2)C[C@H](O)[C@H](Cc2ccccc2)NC(=O)OCc2cncs2)C(C)C)cs1,scaled lipid accumulation score,[3],inactive: 0.007
CC(C)c1nc(CN(C)C(=O)N[C@H](C(=O)N[C@@H](Cc2ccccc2)C[C@H](O)[C@H](Cc2ccccc2)NC(=O)OCc2cncs2)C(C)C)cs1 [Ritonavir],scaled lipid accumulation score,[2],inactive: ≤ 0
same,scaled lipid accumulation score,[3],inactive: ≤ 0
CCCOC(=O)c1c(-c2ccccc2)nc(CC)c(C(=O)SCC)c1CCC,scaled lipid accumulation score,[3],inactive: 0.289
COc1cc(N2CCC(N3CCN(C)CC3)CC2)ccc1Nc1ncc(Cl)c(Nc2ccccc2S(=O)(=O)C(C)C)n1,scaled lipid accumulation score,[4],inactive: ≤ 0
same,scaled lipid accumulation score,[5],inactive: 0.087
same,scaled lipid accumulation score,[6],inactive: 0.571
same,scaled lipid accumulation score,[3],inactive: 0.613
O=C(NCC1CCCCN1)c1cc(OCC(F)(F)F)ccc1OCC(F)(F)F (stereo not given) [Flecainide acetate],scaled lipid accumulation score,,inactive: ≤ 0
same,scaled lipid accumulation score,[3],inactive: 0.398
same,scaled lipid accumulation score,library stock concentration: 10.6 mM,inactive: 0.436
O=C(NCC1CCCCN1)c1cc(OCC(F)(F)F)ccc1OCC(F)(F)F (stereo not given) [Flecainide],scaled lipid accumulation score,library stock concentration: 4.8 mM,inactive: ≤ -0.006
CC1CCc2cc(F)cc3c(=O)c(C(=O)O)cn1c23 (stereo not given) [Flumequine],scaled lipid accumulation score,,inactive: 0.005
same,scaled lipid accumulation score,[2],inactive: ≤ 0
same,scaled lipid accumulation score,library stock concentration: 7.7 mM,inactive: 0.01
same,scaled lipid accumulation score,[3],inactive: ≤ -0.001 and inactive: ≤ 0
CCCC[C@H](C)C[C@H](O)/C=C/[C@H]1[C@H](O)CC(=O)[C@@H]1CCCC/C=C/C(=O)O [Limaprost],scaled lipid accumulation score,[1],inactive: ≤ 0
